{"source": "ChEMBL document CHEMBL1157539", "about": "“Thousands of chemical starting points for antimalarial lead identification” (Nature, 2010)", "note": "Over roughly 13,000 compounds, “IFI” has its median near 4; the highest 2% begin near 17. Some of the results follow."}
{"test": "GSK_TCMDC: Inhibition Frequency Index (IFI). The number of non-kinase HTS assays where a compound showed > 50 % inhibition, expressed as a percentage of the number of such assays in which the compound was tested (-0 is zero)", "format": "functional", "units": {"IFI": "%"}}
{"smiles": "CCNc1cc(C(=O)N[C@@H](Cc2ccc(Cl)cc2)[C@H](O)CNC2CCCCC2)cc(N2CCCCS2(=O)=O)c1", "IFI": 0.76}
{"smiles": "COc1ccc2nc(/N=C3\\NC(c4ccccn4)(c4ccccn4)C(=O)N3C)[nH]c2c1", "IFI": 5.43}
{"smiles": "COc1ccc(C(=O)Nc2ccc3oc(-c4ccc(C(F)(F)F)cc4)cc3c2)cc1CCCN(C)C", "IFI": 9.17}
{"smiles": "O=[N+]([O-])c1ccccc1/C=N/Nc1ccnc2cc(Cl)ccc12", "IFI": 0.75}
{"smiles": "Oc1ccc(CN2Cc3ccccc3OC3(CCN(Cc4c[nH]c5cnccc45)CC3)C2)cc1", "IFI": 1.64}
{"smiles": "C=C[C@H]1CN2CC[C@H]1C[C@@H]2[C@@H](O)c1ccnc2ccc(OC)cc12", "IFI": -0}
{"smiles": "CCN1CCN(Cc2ccc3nc(-c4cc(C)n(Cc5cc(Cl)ccc5OCc5ccccc5)n4)[nH]c3c2)CC1", "IFI": 14.9}
{"smiles": "COc1ccc(NC(=O)Nc2ccc(Nc3nc(C)cc(N4CCCC4)n3)cc2)cc1", "IFI": 11.8}
{"smiles": "CN1CCC(NCc2ccc(-c3ccc(S(=O)(=O)NCc4ccccc4)c(F)c3)cc2)CC1", "IFI": 9.35}
{"smiles": "COc1ccc2nccc([C@@H](O)CN3CCC(NCc4nc5cc(F)c(F)cc5[nH]4)CC3)c2c1", "IFI": 5.11}
{"smiles": "Cc1c(Cn2ncc(N3CCC(N)CC3)c(Cl)c2=O)cccc1NC(=O)Nc1ccc(-c2ccccc2)cc1", "IFI": 8.9}
{"smiles": "CC(=O)c1ccc(-c2ccc(C(=O)NCCCCN3CCC(c4ccc5c(c4OCC(N)=O)CCCC5)CC3)cc2)s1", "IFI": 1.57}
{"smiles": "Cc1cc(N)c2cc(NC(=O)CCC(=O)Nc3ccc4nc(C)cc(N)c4c3)ccc2n1", "IFI": 7.91}
{"smiles": "COc1ccc(N2C(N)=NC(N)=NC2(C)C)cc1OC", "IFI": 0.72}
{"smiles": "Cn1nccc1C(=O)NCCNCc1cccc(-c2ccc(-c3nc4cc(C(F)(F)F)ccc4[nH]3)s2)c1", "IFI": 9.71}
{"smiles": "Clc1cc(Nc2ncnc3sc(C#C[C@H]4CCCN4)cc23)ccc1OCc1cccnc1Cl", "IFI": 7.19}
{"smiles": "CC(=O)c1ccc2c(c1)C(NC(=O)c1cccc(Cl)c1Cl)C(CO)C(C)(C)O2", "note": "(stereo not given)", "IFI": 3.08}
{"smiles": "COC(=O)c1cccc(CNCc2cccc(-c3ccc(-c4nc5cccc(C)c5[nH]4)cc3)c2)c1", "IFI": 4.81}
{"smiles": "CC(Oc1ccc(Cl)cc1)C(=O)N(C)C1CCN(CCCCCNC(=O)/C=C/c2ccc(Cl)c(Cl)c2)CC1", "note": "(stereo not given)", "IFI": 11.6}
{"smiles": "CC[C@H](NC(=O)c1c(CCCN2CCN(c3ccccc3)CC2)c(-c2ccccc2)nc2cc(O)ccc12)c1ccccc1", "IFI": 4.69}
{"smiles": "CCCCCCc1cnc2nc(N)nc(N)c2c1C", "IFI": 2.9}
{"smiles": "O=C(CCc1c[nH]cn1)Nc1cccc(-c2cccc(-c3nc4ccccc4[nH]3)c2)c1", "IFI": 0.86}
{"smiles": "CCOc1cc(C(C)C)ccc1C1CCN(CCCCNC(=O)c2ccc(NC(=O)c3ccc(Cl)cc3)cc2)CC1", "IFI": 8.04}
{"smiles": "O=C(NCc1cccs1)[C@H](Cc1ccccc1)Nc1ccnc(NCC2CCCCC2)n1", "IFI": 6.82}
{"smiles": "CS(=O)(=O)c1ccc(CNCc2ccc(-c3ccc(-c4nc5cc(F)ccc5[nH]4)s3)cc2)cc1", "IFI": 9.52}
{"smiles": "CC(C)COc1ccc(Cl)cc1Cc1ccc(-c2nc3ccc(F)cc3[nH]2)o1", "IFI": 15.5}
{"smiles": "CC(=O)c1cccc2c(NC(=O)Nc3ccc4nccc(N5CCN(C)CC5)c4c3)cccc12", "IFI": 5.11}
{"smiles": "C[C@@H](COc1ccccc1)NCC(O)c1ccc([N+](=O)[O-])c(OCc2ccccc2)c1", "note": "(stereo not given in full)", "IFI": 1.52}
{"smiles": "CC1(C)N=C(N)N=C(Nc2ccc(F)c(F)c2)N1", "IFI": 1.65}
{"smiles": "COc1cc(CNC[C@@H](O)[C@H](Cc2ccccc2)NC(=O)c2cc(C3CCCC3)cc(N3CCCC3=O)c2)cc(OC)c1", "IFI": 4.93}
{"smiles": "Cc1ccc(S(=O)(=O)n2nccc2-c2c(-c3ccc(Cl)cc3)noc2C)cc1", "IFI": 1.75}
{"smiles": "Clc1ccc(-c2ccc(CNCCCN3CCCC3)cc2)cc1", "IFI": 1.43}
{"smiles": "Cc1ccc(C)c(NC(=O)Nc2ccc(Nc3nc(C)cc(N4CCOCC4)n3)cc2)c1", "IFI": 7.32}
{"smiles": "CC(C)(CNCc1ccc(C(F)(F)F)cc1)c1nc(-c2ccc(Cl)c(O)c2)c(-c2ccncc2)[nH]1", "IFI": 7.3}
{"smiles": "CCCCCCN1CCCN(Cc2cccc(NC(=O)c3cc4ccccc4s3)c2)CC1", "IFI": 10.2}
{"smiles": "COCCN(C)CCCOc1cc2c(cc1OC)ncn2-c1cc(OCc2ccccc2C(F)(F)F)c(C(N)=O)s1", "IFI": 9.22}
{"smiles": "O=C(Nc1ccc(-c2ccc(CN3CCNCC3)cc2)cc1)c1cccc(Cl)c1", "IFI": 12.1}
{"smiles": "COc1cc(Cc2cnc(N)nc2N)cc(OCC(C)(C)C(=O)O)c1OC", "IFI": 0.72}
{"smiles": "CC(CCCCC(=O)Nc1ccc(CC(C)NCCc2cccc(Cl)c2)cc1)NCCc1cccc(Cl)c1", "note": "(stereo not given)", "IFI": 4.29}
{"smiles": "Cc1cc(NCC(c2ccccc2)c2ccccc2)nc(NCC2CCCCC2)n1", "IFI": 16}
{"smiles": "CN(c1ccc(NC(=O)Nc2cccc(Cl)c2)cc1)c1ccnc(N)n1", "IFI": 6.9}
{"smiles": "CCc1cn2c3c(cc(C(=O)N[C@@H](Cc4ccccc4)[C@H](O)CNC(C)C)cc13)N(C)S(=O)(=O)C2", "IFI": 2.11}
{"smiles": "CCc1ccc(CN2CCC(NC(=O)c3cc(-c4ccc(N(C)C)cc4)cs3)C2)cc1", "note": "(stereo not given)", "IFI": 10.2}
{"smiles": "Cc1cc(N)c2cc(NC(=O)/C=C/c3ccccc3Cl)ccc2n1", "IFI": 10.3}
{"smiles": "COc1cccc(OC)c1CN1CCC(N(C)CCCCCCCCCN2CCC(OC(=O)Nc3ccccc3-c3ccccc3)CC2)CC1", "IFI": 17.3}
{"smiles": "N#Cc1ccc2c(c1)CCN(CCC1CCC(NC(=O)c3ccc(-c4ccccc4)s3)CC1)CC2", "note": "(stereo not given)", "IFI": 0.72}
{"smiles": "CCCN1CCN(c2cc(NCC)c3c4c(onc24)-c2ccccc2C3=O)CC1", "IFI": 1.41}
{"smiles": "CN1CCN(Cc2ccc(-c3ccc4c(Nc5ccc(Oc6ccccc6)cc5)ccnc4c3)o2)CC1", "IFI": 13}
{"smiles": "Cc1cccc2nc(-c3ccc(-c4cccc(NC(=O)CCc5c[nH]cn5)c4)cc3)[nH]c12", "IFI": 2.61}
{"smiles": "c1cc(CNCC2CCCO2)cc(-c2ccc(-c3nc4ccccc4[nH]3)s2)c1", "note": "(stereo not given)", "IFI": 2.94}
{"smiles": "CC(=O)OC[C@H]1O[C@@H](C#Cc2ccccc2)[C@H](OC(C)=O)[C@@H](OC(C)=O)[C@@H]1OC(C)=O", "IFI": 3.55}
{"smiles": "Fc1ccc2[nH]c(-c3ccc(-c4ccc(CNCCc5ccncc5)cc4)s3)nc2c1", "IFI": 11.9}
{"smiles": "N#Cc1ccc(N2CCN(Cc3cccc(-c4ccc(-c5nc6ccccc6[nH]5)cc4)c3)CC2)nc1", "IFI": 13.7}
{"smiles": "Cc1nc(C)c(-c2ccc(Br)cc2)c(O)c1Br", "IFI": -0}
{"smiles": "COc1ccc(S(=O)(=O)N(CC(=O)NN=C(C)c2cccs2)c2cc(C)cc(C)c2)cc1OC", "IFI": -0}
